This passage reports enrichment ratio results from a collection of fitness landscapes (doi:10.1126/science.1257360).

The list shows a part of the results.

B1: PhoQ; a variant is named by its letters at X, in order, P23837 (parent)
chain: MKKLLRLFFPLSLRVRFLLATAAVVLVLSLAYGMVALIGYSVSFDKTTFRLLRGESNLFYTLAKWENNKLHVELPENIDKQSPTMTLIYDENGQLLWAQRDVPWLMKMIQPDWLKSNGFHEIEADVNDTSLLLSGDHSIQQQLQEVREDDDDAEMTHSVAVNVYPATSRMPKLTIVVVDTIPVELKSSYMVWSWFIYVLSANLLLVIPLLWVAAWWSLRPIEALAKEVRELEEHNRELLNPATTRELTSLVRNLNRLLKSERERYDKYRTTLTDLTHSLKTPLXXLQXXLRSLRSEKMSVSDAEPVMLEQISRISQQIGYYLHRASMRGGTLLSRELHPVAPLLDNLTSALNKVYQRKGVNISLDISPEISFVGEQNDFVEVMGNVLDNACKYCLEFVEISARQTDEHLYIVVEDDGPGIPLSKREVIFDRGQRVDTLRPGQGVGLAVAREITEQYEGKIVAGESMLGGARMEVIFGRQHSAPKDE

The variants in the test derive from B1. The test can be described thus: enrichment ratio after two sorts for PhoP signalling (ratio (wild type AVST 3.29)); higher = more functional. Particulars: with PhoP (E. coli).
Regarding EGMR, the enrichment ratio is ≤ 0.25.

With PKWG, the enrichment ratio is ≤ 0.25.

As for DHYF, the enrichment ratio was ≤ 0.25.

On to YNRI, for which the enrichment ratio is ≤ 0.25.

As for AHRF, the enrichment ratio is ≤ 0.25.

For YRPT, the enrichment ratio is ≤ 0.25.

MWIY: the enrichment ratio is ≤ 0.25.

Consider ERYI, for which the enrichment ratio was ≤ 0.25.

Consider TTPP, for which the enrichment ratio was ≤ 0.25.

As to VKRI, the enrichment ratio was ≤ 0.25.

On to ESVP, for which the enrichment ratio is ≤ 0.25.

As for NHHC, the enrichment ratio is ≤ 0.25.

For QGWL, the enrichment ratio came out at 2.29.

For the variant QYMF, the enrichment ratio is ≤ 0.25.

As for ENLD, the enrichment ratio is ≤ 0.25.

In the case of VYKV, the enrichment ratio is ≤ 0.25.

With PDIW, the enrichment ratio is ≤ 0.25.

On to TNWD, for which the enrichment ratio is ≤ 0.25.

For the variant VRWI, the enrichment ratio was ≤ 0.25.

Take AHFL: the enrichment ratio was ≤ 0.25.

For RISY, the enrichment ratio is ≤ 0.25.

On to MDCI, for which the enrichment ratio is ≤ 0.25.

Consider FGWI, for which the enrichment ratio was ≤ 0.25.

HIII: the enrichment ratio came to 6.08.

Turning to FRPR, the enrichment ratio is ≤ 0.25.

Consider HNIL, for which the enrichment ratio was ≤ 0.25.

Take IKMQ: the enrichment ratio was ≤ 0.25.

Turning to NREY, the enrichment ratio was ≤ 0.25.

As to LCKH, the enrichment ratio is ≤ 0.25.

As to RYLW, the enrichment ratio was ≤ 0.25.

On to QLFE, for which the enrichment ratio was ≤ 0.25.

In the case of GEIY, the enrichment ratio came to 23.

Regarding SSIM, the enrichment ratio stood at 18.4.

Consider LHYC, for which the enrichment ratio is ≤ 0.25.

As for MMMR, the enrichment ratio was ≤ 0.25.

Take TPFT: the enrichment ratio was ≤ 0.25.

In the case of WTPQ, the enrichment ratio is ≤ 0.25.

As for WVFV, the enrichment ratio is ≤ 0.25.

As to KVWA, the enrichment ratio is ≤ 0.25.

As to DIAA, the enrichment ratio was ≤ 0.25.

As to PCDT, the enrichment ratio is ≤ 0.25.

Consider YKAV, for which the enrichment ratio was ≤ 0.25.

With EFVS, the enrichment ratio was ≤ 0.25.

With ILKL, the enrichment ratio was ≤ 0.25.

Consider NDTR, for which the enrichment ratio was ≤ 0.25.

In the case of ISGG, the enrichment ratio is ≤ 0.25.

With PDAC, the enrichment ratio is ≤ 0.25.

For KGNL, the enrichment ratio is ≤ 0.25.

As to RVCP, the enrichment ratio is ≤ 0.25.

Consider SFFN, for which the enrichment ratio is ≤ 0.25.

QLVC: the enrichment ratio is ≤ 0.25.

Consider LHIV, for which the enrichment ratio was ≤ 0.25.

Consider FSMS, for which the enrichment ratio came out at 1.68.

In the case of LLHQ, the enrichment ratio is ≤ 0.25.

Regarding SMCA, the enrichment ratio was found to be 15.3.

HDKA: the enrichment ratio was ≤ 0.25.

RCDR: the enrichment ratio was ≤ 0.25.

As to PGGK, the enrichment ratio was ≤ 0.25.

Consider DHKN, for which the enrichment ratio is ≤ 0.25.

Regarding ADEL, the enrichment ratio is ≤ 0.25.

In the case of AYDN, the enrichment ratio was ≤ 0.25.

Consider NVFA, for which the enrichment ratio is ≤ 0.25.

Take WLLK: the enrichment ratio came to 0.74.

Regarding SCKH, the enrichment ratio was ≤ 0.25.

Take PDIM: the enrichment ratio is ≤ 0.25.

Take TSQG: the enrichment ratio was determined as 9.59.

SRAD: the enrichment ratio is ≤ 0.25.

For DDEM, the enrichment ratio was ≤ 0.25.

Consider LVDF, for which the enrichment ratio is ≤ 0.25.

For the variant VHQW, the enrichment ratio was ≤ 0.25.

For the variant DCSF, the enrichment ratio is ≤ 0.25.

With MSQQ, the enrichment ratio was ≤ 0.25.

Regarding NHMN, the enrichment ratio is ≤ 0.25.

As to FSPN, the enrichment ratio is ≤ 0.25.

Take VTHI: the enrichment ratio was ≤ 0.25.

In the case of TLIV, the enrichment ratio is ≤ 0.25.

Take SQFD: the enrichment ratio was ≤ 0.25.

Consider AGCD, for which the enrichment ratio was ≤ 0.25.

As to VHWH, the enrichment ratio is ≤ 0.25.

VNPE: the enrichment ratio is ≤ 0.25.

YVIP: the enrichment ratio is ≤ 0.25.

Turning to ESGD, the enrichment ratio is ≤ 0.25.

In the case of MEIR, the enrichment ratio is ≤ 0.25.

In the case of SMHM, the enrichment ratio is ≤ 0.25.

For YEPT, the enrichment ratio is ≤ 0.25.

Take LSWH: the enrichment ratio was determined as 0.301.

As for WRGH, the enrichment ratio is ≤ 0.25.

For WNHI, the enrichment ratio was ≤ 0.25.

For the variant TCNI, the enrichment ratio was 2.07.

On to NCSS, for which the enrichment ratio is ≤ 0.25.

Consider DQYW, for which the enrichment ratio is ≤ 0.25.

As to VCML, the enrichment ratio was determined as 10.

Regarding EGGQ, the enrichment ratio was ≤ 0.25.

Regarding VWIQ, the enrichment ratio is ≤ 0.25.

With FEDC, the enrichment ratio is ≤ 0.25.

Consider SMHC, for which the enrichment ratio is ≤ 0.25.

Consider FFKC, for which the enrichment ratio is ≤ 0.25.

As for LGEG, the enrichment ratio was ≤ 0.25.

With LLYQ, the enrichment ratio is ≤ 0.25.

Regarding QKWS, the enrichment ratio was ≤ 0.25.

For the variant IEAL, the enrichment ratio is ≤ 0.25.

For GFYQ, the enrichment ratio is ≤ 0.25.

For the variant GFSS, the enrichment ratio was ≤ 0.25.

For the variant VSMF, the enrichment ratio is ≤ 0.25.

As for VPAD, the enrichment ratio was ≤ 0.25.

In the case of VRMS, the enrichment ratio was ≤ 0.25.

Take GACW: the enrichment ratio was ≤ 0.25.

TYPD: the enrichment ratio was ≤ 0.25.

With DNTA, the enrichment ratio is ≤ 0.25.

For the variant TEGR, the enrichment ratio is ≤ 0.25.

On to NSTK, for which the enrichment ratio was ≤ 0.25.

For TNQP, the enrichment ratio was ≤ 0.25.

Regarding DGVD, the enrichment ratio is ≤ 0.25.

Consider SQSA, for which the enrichment ratio worked out at 3.01.

Regarding LQNF, the enrichment ratio is ≤ 0.25.

Consider KAWN, for which the enrichment ratio was ≤ 0.25.

RCEH: the enrichment ratio is ≤ 0.25.

With QPDT, the enrichment ratio is ≤ 0.25.

Take LDEW: the enrichment ratio was ≤ 0.25.

PLAH: the enrichment ratio was ≤ 0.25.

For SIVI, the enrichment ratio worked out at 2.79.

For ASYI, the enrichment ratio is ≤ 0.25.

Take YSRL: the enrichment ratio is ≤ 0.25.

For the variant VING, the enrichment ratio is ≤ 0.25.

Consider WECF, for which the enrichment ratio was ≤ 0.25.

Take EYHR: the enrichment ratio is ≤ 0.25.

Take KVKW: the enrichment ratio is ≤ 0.25.

For the variant GWMP, the enrichment ratio was ≤ 0.25.

Take KKTE: the enrichment ratio is ≤ 0.25.

Take PFGA: the enrichment ratio was ≤ 0.25.

For the variant IQWV, the enrichment ratio is ≤ 0.25.

Take SWVE: the enrichment ratio is ≤ 0.25.

Regarding AHCR, the enrichment ratio was ≤ 0.25.

Regarding MYGR, the enrichment ratio is ≤ 0.25.

Take SFNL: the enrichment ratio is ≤ 0.25.

Take LTMF: the enrichment ratio amounted to 0.436.

Consider ISPC, for which the enrichment ratio is ≤ 0.25.

Consider MFWY, for which the enrichment ratio was ≤ 0.25.

In the case of GWYP, the enrichment ratio is ≤ 0.25.

For SMHD, the enrichment ratio was ≤ 0.25.

In the case of TMRP, the enrichment ratio is ≤ 0.25.

For PCQD, the enrichment ratio is ≤ 0.25.

For the variant RPRS, the enrichment ratio was ≤ 0.25.

As to QVCW, the enrichment ratio is ≤ 0.25.

As for VPFC, the enrichment ratio is ≤ 0.25.

Consider REVQ, for which the enrichment ratio is ≤ 0.25.

With VTTF, the enrichment ratio is ≤ 0.25.

As for NEEG, the enrichment ratio was ≤ 0.25.

On to RYCL, for which the enrichment ratio was ≤ 0.25.

As to IAYL, the enrichment ratio is ≤ 0.25.

For WCLT, the enrichment ratio is ≤ 0.25.

Take GGTF: the enrichment ratio was ≤ 0.25.

SKAD: the enrichment ratio was ≤ 0.25.
